Measurements reported in PubChem BioAssay AID504333 (National Center for Advancing Translational Sciences (NCATS), 2011).
In all, about 360,000 compounds went through this assay and about 16,000 (4.4%) were called active. The inconclusive results got no clear call from the source; some entries with a clear call stand among them for comparison. Calls come from the whole dose curve; as a rule, active = well fitted inhibition curve with a large enough effect; inconclusive = small, poorly fitted or top-dose-only effect; inactive = no such curve, though single readings can be large or run the other way. Potencies beside an inconclusive call are fits to weak or partial responses and may not hold up.

The molecules below were run against Bromodomain adjacent to zinc finger domain protein 2B (Homo sapiens) (UniProt Q9UIF8) (assay: qHTS Assay for Inhibitors of BAZ2B). Conditions: AlphaScreen BAZ2B-H3K14Ac peptide displacement; series mostly up to 114 µM.
Chain of UniProt Q9UIF8 (Q9UIF8 whole entry, looked up, the tested form may be a part): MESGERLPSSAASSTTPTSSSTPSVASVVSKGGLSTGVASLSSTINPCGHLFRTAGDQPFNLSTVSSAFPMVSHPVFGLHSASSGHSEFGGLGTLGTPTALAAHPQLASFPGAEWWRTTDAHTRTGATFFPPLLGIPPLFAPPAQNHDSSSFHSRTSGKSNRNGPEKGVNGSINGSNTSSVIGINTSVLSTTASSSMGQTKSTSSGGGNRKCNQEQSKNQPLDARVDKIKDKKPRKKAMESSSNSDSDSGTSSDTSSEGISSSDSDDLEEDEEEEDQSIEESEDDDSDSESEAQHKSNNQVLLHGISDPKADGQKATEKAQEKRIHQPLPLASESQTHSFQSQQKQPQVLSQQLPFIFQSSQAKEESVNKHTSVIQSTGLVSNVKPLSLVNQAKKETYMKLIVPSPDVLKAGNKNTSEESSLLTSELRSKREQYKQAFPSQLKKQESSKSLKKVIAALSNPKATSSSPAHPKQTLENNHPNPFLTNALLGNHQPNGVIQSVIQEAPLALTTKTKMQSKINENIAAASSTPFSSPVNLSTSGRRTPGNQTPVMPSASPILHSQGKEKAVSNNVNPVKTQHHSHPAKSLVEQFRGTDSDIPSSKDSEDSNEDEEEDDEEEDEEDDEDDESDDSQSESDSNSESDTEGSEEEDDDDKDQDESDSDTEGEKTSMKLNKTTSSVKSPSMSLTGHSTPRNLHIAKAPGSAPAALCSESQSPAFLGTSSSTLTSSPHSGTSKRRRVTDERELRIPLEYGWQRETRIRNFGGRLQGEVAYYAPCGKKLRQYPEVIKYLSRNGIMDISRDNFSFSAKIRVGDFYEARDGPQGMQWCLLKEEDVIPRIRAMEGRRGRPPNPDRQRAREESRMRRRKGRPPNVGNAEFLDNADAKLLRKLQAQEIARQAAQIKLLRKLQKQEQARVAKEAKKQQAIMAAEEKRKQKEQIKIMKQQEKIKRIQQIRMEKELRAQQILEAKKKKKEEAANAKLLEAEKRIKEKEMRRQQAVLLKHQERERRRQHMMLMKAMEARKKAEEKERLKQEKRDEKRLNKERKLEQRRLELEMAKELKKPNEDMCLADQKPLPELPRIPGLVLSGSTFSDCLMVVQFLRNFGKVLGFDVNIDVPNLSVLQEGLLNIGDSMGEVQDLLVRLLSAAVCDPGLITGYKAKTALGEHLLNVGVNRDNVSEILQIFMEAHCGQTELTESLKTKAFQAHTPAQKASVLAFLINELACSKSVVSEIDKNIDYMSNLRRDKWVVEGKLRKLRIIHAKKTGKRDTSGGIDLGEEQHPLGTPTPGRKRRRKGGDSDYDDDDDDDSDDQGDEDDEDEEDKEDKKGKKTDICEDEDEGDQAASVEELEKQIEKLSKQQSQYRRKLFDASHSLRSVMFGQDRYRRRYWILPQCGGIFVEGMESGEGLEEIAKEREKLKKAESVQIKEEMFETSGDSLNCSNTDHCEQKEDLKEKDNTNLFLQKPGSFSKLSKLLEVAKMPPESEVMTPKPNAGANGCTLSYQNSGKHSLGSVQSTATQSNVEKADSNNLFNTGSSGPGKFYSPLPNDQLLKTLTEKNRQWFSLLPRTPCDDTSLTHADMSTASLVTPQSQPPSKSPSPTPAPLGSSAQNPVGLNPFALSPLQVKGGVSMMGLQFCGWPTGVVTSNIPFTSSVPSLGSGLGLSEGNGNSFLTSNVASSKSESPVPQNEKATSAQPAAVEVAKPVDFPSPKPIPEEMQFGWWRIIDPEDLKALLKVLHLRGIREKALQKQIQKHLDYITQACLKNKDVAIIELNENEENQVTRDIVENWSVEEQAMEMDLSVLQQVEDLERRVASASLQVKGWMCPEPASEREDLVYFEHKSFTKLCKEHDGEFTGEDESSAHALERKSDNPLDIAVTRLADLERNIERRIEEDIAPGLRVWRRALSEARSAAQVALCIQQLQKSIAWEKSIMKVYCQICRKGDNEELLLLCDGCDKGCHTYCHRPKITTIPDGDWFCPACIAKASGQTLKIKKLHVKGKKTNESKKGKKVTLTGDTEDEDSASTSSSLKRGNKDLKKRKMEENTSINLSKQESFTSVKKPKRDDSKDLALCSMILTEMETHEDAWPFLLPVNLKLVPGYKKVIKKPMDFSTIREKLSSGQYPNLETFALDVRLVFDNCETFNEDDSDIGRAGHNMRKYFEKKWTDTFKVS
Procedure, shortened: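 AlphaScreen luminescence quantifies BAZ2B engagement of H3K14Ac peptide; the protein and biotinylated peptide are both at 50 nM final, buffer PBS pH 7.4 with 0.01% Tween-20, all steps at room temperature.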
Note: nearly all actives have a fitted effect of over 60% in size.
Potency is the fitted concentration of half-maximal effect; tags give direction and shape of the fitted curve.

Compound	Potency
Cc1cccc(OCCCCn2nnc3sc4c(c3c2=O)CCC(C)C4)c1 (stereo not given)	inconclusive: 89.1 µM [inhibitor, single point]
O=C(C1CCCN1S(=O)(=O)c1ccc(Cl)cc1)N1CCCCC1 (stereo not given)	inactive
Cc1cccc(N(CC(=O)NCCC2=CCCCC2)S(C)(=O)=O)c1C	inactive
Cc1ccc(C(=O)Sc2cccccc2=O)cc1	active: 39.8 µM
C=CCn1c(CSc2nc3ccccc3s2)nnc1SCC(=O)OCC	inactive
CCCN1Cc2cccc(C(=O)Nc3ccc4c(c3)OCO4)c2C1=O	inconclusive: 79.4 µM [inhibitor, single point]
CCOc1ccc(N=Nc2c(C)noc2C)cc1	inconclusive: 39.8 µM [inhibitor, partial curve]
COc1ccc(-c2ncc3ccccn23)cc1OC	active: 31.6 µM
COc1ccccc1NC(=O)Nc1nc(CC(=O)Nc2ccc(N(C)C)cc2)cs1	active: 12.6 µM
COc1cc(CNc2ccc3[nH]c(=O)[nH]c3c2)cc(Br)c1OCC(=O)NC(C)(C)C	active: 39.8 µM
Cc1cccc(N2CCN(C(=O)Cc3cn(C)c4ccccc34)CC2)c1C	inconclusive: 50.1 µM [inhibitor, partial curve]
O=C(O)c1ccc2cccc(Cl)c2c1O	inconclusive: 89.1 µM [inhibitor, single point]
CCN(CC)c1ccc(NC(=O)Nc2cccc(C(C)=O)c2)cc1	active: 31.6 µM
O=C(c1ccc(=O)oc1)N1CCCc2ccccc21	active: 44.7 µM
Cc1ccc(N(CC(=O)N/N=C/c2cccs2)S(C)(=O)=O)cc1Cl	inactive
COc1ccc(-c2nc3nc(C)cc(Nc4ccc(C(C)=O)cc4)n3n2)cc1	inactive
COC(OC)C12c3ccccc3C(c3ccccc31)C1C(=O)N(c3cccnc3)C(=O)C12 (stereo not given)	inconclusive: 89.1 µM [inhibitor, single point]
CC1CCN(c2ccc(NC(=S)NC(=O)c3ccco3)cc2)CC1	active: 8.91 µM
COC(=O)C1=C(C(=O)OC)C2(OC1c1cccc(F)c1)C(=O)c1ccccc1C2=O (stereo not given)	inactive
Cc1ccc[n+](CC(=O)Nc2nc3ccccc3s2)c1	inconclusive: 89.1 µM [inhibitor, partial curve]
Cn1c(=O)n(C)c2cc(N3CCCCC3)c(NC(=O)c3ccccc3)cc21	active: 50.1 µM
S=C(c1ccc(Cl)cc1)N1CCN(Cc2ccccc2)CC1	inconclusive: 79.4 µM [inhibitor, partial curve]
COc1cccc2c1Oc1nc(-c3ccccc3)nc(SCC(=O)N3CCCCC3)c1C2	inactive
COc1cccc(NC(=O)c2oc3ccccc3c2NC(=O)C23CC4CC(CC(C4)C2)C3)c1	inconclusive: 56.2 µM [inhibitor, partial curve, poor fit]
O=C(O)C1CC(O)CN1C(=S)Nc1ccccc1 (stereo not given)	inactive

Compound	Potency
O=C(CS(=O)(=O)c1ccccc1)Nc1nccs1	inactive
Cc1occc1-c1nnc(SCC(=O)NC2CC2)n1C(C)C	inconclusive: 63.1 µM [inhibitor, partial curve, poor fit]
CC(OC(=O)c1ccc2ncsc2c1)C(=O)N(C)C1CCCCC1 (stereo not given)	inconclusive: 89.1 µM [inhibitor, single point]
COc1cc(C(Nc2ccc3c(c2)OCO3)C(=O)NC2CCCCC2)cc(OC)c1OC (stereo not given)	active: 39.8 µM
CC(C)(C)c1ccc(S(=O)(=O)CCc2ccccn2)cc1	inconclusive: 6.31 µM [inhibitor, single point]
CC(C)CCNc1ncnc2c1nnn2Cc1ccccc1Cl	inactive
CC(NC(=O)CCn1c(=O)c2cccn2c2ccc(F)cc21)c1ccccc1 (stereo not given)	inactive
CCCCC(=O)Nc1ccc(N2CCN(S(C)(=O)=O)CC2)cc1	inconclusive: 3.55 µM [inhibitor, full curve, poor fit]
COc1ccccc1CCC(=O)OCC(=O)Nc1ccc(C(N)=O)cc1	inactive
O=C(O)Cn1c2ccccc2c2n[nH]c(=S)nc21	active: 50.1 µM
O=C(Nc1nc(-c2ccco2)c(-c2ccco2)s1)c1ccc(F)cc1F	active: 39.8 µM
COC(=O)C1=C(C)N(Cc2ccco2)C(=O)N[C@H]1c1cccc(C(F)(F)F)c1	inactive
Oc1cccc(Nc2ccccc2)c1	inconclusive: 89.1 µM [inhibitor, single point]
CCOc1ccc(OCC)c(C2C(C#N)=C(N)N(c3cccnc3)C3=C2C(=O)CC(C)(C)C3)c1 (stereo not given)	inconclusive: 39.8 µM [inhibitor, single point]
O=C1C2C3C=CC(C3)C2C(=O)N1CCC(=O)N1CCc2ccccc21 (stereo not given)	inconclusive: 39.8 µM [inhibitor, single point]
CCOc1ccc(CCNC(=O)c2ccc(CS(=O)(=O)Cc3ccccc3Cl)o2)cc1OCC	inconclusive: 70.8 µM [inhibitor, partial curve]
Cc1ccccc1CN1CCc2nc(Nc3ccc4c(c3)OCCO4)ncc2C1	active: 22.4 µM
Cc1ccc2c(c1)c1c3n2CCNC3CCC1 (stereo not given)	inconclusive: 70.8 µM [inhibitor, single point]
O=C1CCCC2=C1C(c1ccco1)Nc1ccc(C(=O)c3ccccc3)cc1N2 (stereo not given)	inconclusive: 56.2 µM [inhibitor, single point]
O=C(NCc1ccccc1Cl)c1ccc(S(=O)(=O)N2CCCC2)cc1	inactive
CCOC(=O)c1c(-c2ccccc2)csc1/N=C/C1C(=O)CCCC1=O	inconclusive: 89.1 µM [inhibitor, single point]
Oc1cccc2ccc(Nc3ccccn3)nc12	active: 5.01 µM
Cc1ccc(-c2nc(S(=O)(=O)c3ccc(C)cc3)c(N3CCN(c4ccccc4)CC3)o2)cc1	inconclusive: 1 µM [inhibitor, full curve, poor fit]
COc1cc(/C=C2\SC(=S)N(CCC(=O)Nc3ccccc3)C2=O)cc(OC)c1OC	inconclusive: 100 µM [inhibitor, partial curve]
CC(NCc1ccc(N(C)C)cc1)C1CC2CCC1C2 (stereo not given)	inconclusive: 70.8 µM [inhibitor, single point]

Compound	Potency
O=C(CC1C(=O)NCCN1Cc1ccc(-c2ccccc2)cc1)NCCCn1cccn1 (stereo not given)	inconclusive: 79.4 µM [inhibitor, single point]
O=C(Nc1ccc(N2CCN(C(=O)c3ccc(Cl)cc3)CC2)cc1)c1ccc(Br)o1	inconclusive: 7.94 µM [inhibitor, full curve, poor fit]
Cn1c(=O)c2c(nc(SCCN3CCCCC3)n2C)n(C)c1=O	inactive
COc1ccc(CCN2C(=O)c3cccnc3C2=O)cc1OC	active: 79.4 µM
CCOC(=O)Cn1nc(NC(=O)c2cc(OC)cc(OC)c2)cc1C	inconclusive: 1.41 µM [inhibitor, full curve, poor fit]
O=C(Nc1ccccc1[N+](=O)[O-])c1cc(S(=O)(=O)Nc2ccccn2)ccc1Cl	inconclusive: 89.1 µM [inhibitor, single point]
COc1ccc(Cn2c(C)nnc2-c2cnn(C)c2N)cc1OC	inconclusive: 100 µM [inhibitor, single point]
Cc1cc2ccccn2c1C(=O)c1nc(NCc2ccccc2)ncc1Cl	inconclusive: 79.4 µM [inhibitor, partial curve]
COc1ccccc1NC(=O)N1CCN(c2ccnc3cc(Cl)ccc23)CC1	inconclusive: 79.4 µM [inhibitor, single point]
COc1ccc(C(C)=O)cc1COC(=O)c1ccc(N)c([N+](=O)[O-])c1	inconclusive: 79.4 µM [inhibitor, single point]
COc1ccc(CCc2nnc(CCC(=O)NCCc3ncccc3C)o2)cc1	inactive
N#C/C(=C/c1ccc(-c2ccc(C(=O)O)c(Cl)c2)o1)C(=O)NCC1CCCO1 (stereo not given)	active: 56.2 µM
Cn1cc(Br)c(C(=O)NC(=S)N2CCN(c3ccccn3)CC2)n1	inconclusive: 89.1 µM [inhibitor, single point]
CN1CCN(c2ccc(NC(=O)COc3cccc4ccccc34)cc2)CC1	inconclusive: 31.6 µM [inhibitor, full curve]
Cc1ccc(-n2c(CNc3ccc(C)c(Cl)c3)n[nH]c2=S)cc1	inconclusive: 50.1 µM [inhibitor, partial curve]
CN(C)c1cccc(N(C)C)c1CNC(=O)NC(=O)c1c(F)cccc1F	inconclusive: 31.6 µM [inhibitor, partial curve]
COc1ccc(S(=O)(=O)c2c(O)c3ccc(C(=O)Nc4cccc(F)c4)cc3[nH]c2=O)cc1	inconclusive: 89.1 µM [inhibitor, single point]
CCOc1ccccc1Nc1ncccc1C(=O)O	inconclusive: 7.08 µM [inhibitor, single point]
CCc1cccc(C)c1NC(=O)Cn1c(=O)cc(C(F)(F)F)c2c(C)nn(C)c21	inactive
NS(=O)(=O)c1ccc(N/N=C2/CCCCC2C2CCCCC2)c([N+](=O)[O-])c1 (stereo not given)	active: 10 µM
O=C(N/N=C/c1ccc(-c2ccccc2C(=O)O)o1)c1cccs1	active: 56.2 µM
CC(=O)c1sc(N)c(C(=O)OC(C)C)c1C	inconclusive: 79.4 µM [inhibitor, single point]
O=C(O)c1ccc(NS(=O)(=O)c2ccc(NC(=O)c3ccccc3Cl)cc2)cc1	inconclusive: 89.1 µM [inhibitor, single point]
O=C(NNc1cccc(Cl)n1)c1cccnc1Cl	inactive
CCOC(=O)c1cc(C(=O)OCC)cc(-n2c(C)cc(C(=O)CN3CCOCC3)c2C)c1	inconclusive: 89.1 µM [inhibitor, single point]
